# Results reported in patent US7517874B2 (priority 2007, dated 2009).
# Biological target: human CB2 receptor (hCB2) (Homo sapiens, UniProt P34972)
# Test: cell-based
# Format: cell-based
# Conditions: for +/− HCB2: agonist or inverse agonist at hCB2
# [1] = groups >100 nM-10 μM and >10 μM, cAMP, CHO-K1 hCB2, read-out: EC50 HCB2
# Chain of human CB2 receptor (hCB2) (P34972 whole entry): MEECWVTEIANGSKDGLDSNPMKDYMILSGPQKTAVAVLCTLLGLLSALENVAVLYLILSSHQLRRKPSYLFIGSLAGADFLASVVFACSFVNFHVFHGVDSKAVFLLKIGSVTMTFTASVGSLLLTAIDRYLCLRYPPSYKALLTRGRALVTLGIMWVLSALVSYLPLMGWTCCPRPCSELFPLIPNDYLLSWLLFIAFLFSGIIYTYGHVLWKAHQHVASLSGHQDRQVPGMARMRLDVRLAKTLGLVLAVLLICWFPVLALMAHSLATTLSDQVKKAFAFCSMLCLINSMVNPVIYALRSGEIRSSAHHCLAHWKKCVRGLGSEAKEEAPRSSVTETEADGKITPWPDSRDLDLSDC
Structure (SMILES),+/− HCB2,further results
"CC(C)CCNC(=O)c1nc(-c2ccc(Cl)cc2)n2c1CN(CCO)CC2 [Compound 159, 3-(4-chlorophenyl)-7-(2-hydroxyethyl)-N-isopentyl-5,6,7,8-tetrahydroimidazo[1,5-a]pyrazine-1-carboxamide]",,EC50 [1]: > 10000 nM
"CNC(=O)[C@@H](NC(=O)c1nc(-c2ccccc2)n2c1CN(C)CC2)C(C)(C)C [Compound 48, (S)-N-(3,3-dimethyl-1-(methylamino)-1-oxobutan-2-yl)-7-methyl-3-phenyl-5,6,7,8-tetrahydroimidazo[1,5-a]pyrazine-1-carboxamide]",+,
"CC12CCC(C1)C(C)(C)C2NC(=O)c1nc(-c2ccccc2)n2c1CNCC2 (stereo not shown) [Compound 39, 3-Phenyl-N-(1,3,3-trimethylbicyclo[2.2.1]heptan-2-yl)-5,6,7,8-tetrahydro-imidazo[1,5-a]pyrazine-1-carboxamide HCl]",+,
"CNC(=O)[C@@H](NC(=O)c1nc(C(C)c2ccccc2)n2c1CN(C)CCC2)C(C)(C)C (stereo partly drawn) [Compound 506, N-((S)-3,3-dimethyl-1-(methylamino)-1-oxobutan-2-yl)-8-methyl-3-(1-phenylethyl)-6,7,8,9-tetrahydro-5H-imidazo[1,5-a][1,4]diazepine-1-carboxamide]",+,
"CNC(=O)[C@@H](NC(=O)c1nc(-c2cc(C(F)(F)F)ccc2F)n2c1CN(C)CCC2)C(C)(C)C [Compound 363, (S)-N-(3,3-dimethyl-1-(methylamino)-1-oxobutan-2-yl)-3-(2-fluoro-5-(trifluoromethyl)phenyl)-8-methyl-6,7,8,9-tetrahydro-5H-imidazo[1,5-a][1,4]diazepine-1-carboxamide]",+,
"O=C(NC1CCCCC1)c1nc(-c2ccccc2)n2c1CN(CCO)CC2 [Compound 166, N-cyclohexyl-7-(2-hydroxyethyl)-3-phenyl-5,6,7,8-tetrahydroimidazo[1,5-a]pyrazine-1-carboxamide]",,EC50 [1]: > 10000 nM
"C=C(c1nc(C(=O)N[C@H](C(=O)NC)C(C)(C)C)c2n1CCCN(C)C2)C(F)(F)F [Compound 453, (S)-N-(3,3-dimethyl-1-(methylamino)-1-oxobutan-2-yl)-8-methyl-3-(3,3,3-trifluoroprop-1-en-2-yl)-6,7,8,9-tetrahydro-5H-imidazo[1,5-a][1,4]diazepine-1-carboxamide]",,EC50: > 10000 nM
"CNC(=O)[C@@H](NC(=O)c1nc(-c2cc(Cl)c(C)cc2F)n2c1CN(C)CCC2)C(C)(C)C [Compound 357, (S)-3-(5-chloro-2-fluoro-4-methylphenyl)-N-(3,3-dimethyl-1-(methylamino)-1-oxobutan-2-yl)-8-methyl-6,7,8,9-tetrahydro-5H-imidazo[1,5-a][1,4]diazepine-1-carboxamide]",+,
"CCCc1nc(C(=O)N[C@H](C(=O)NC)C(C)(C)C)c2n1CCN(C)C2 [Compound 304, (S)-N-(3,3-dimethyl-1-(methylamino)-1-oxobutan-2-yl)-7-methyl-3-propyl-5,6,7,8-tetrahydroimidazo[1,5-a]pyrazine-1-carboxamide]",+,
"CNC(=O)[C@@H](NC(=O)c1nc(-c2cc(OC)cc(C(F)(F)F)c2)n2c1CN(C)CCC2)C(C)(C)C [Compound 418, (S)-N-(3,3-dimethyl-1-(methylamino)-1-oxobutan-2-yl)-3-(3-methoxy-5-(trifluoromethyl)phenyl)-8-methyl-6,7,8,9-tetrahydro-5H-imidazo[1,5-a][1,4]diazepine-1-carboxamide]",+,
"Cc1ccc(-c2nc(C(=O)N[C@H](C(=O)O)C(C)(C)C)c3n2CCCN(C(=O)OC(C)(C)C)C3)c(F)c1 [Compound 516, (S)-2-(8-(tert-butoxycarbonyl)-3-(2-fluoro-4-methylphenyl)-6,7,8,9-tetrahydro-5H-imidazo[1,5-a][1,4]diazepine-1-carboxamido)-3,3-dimethylbutanoic acid]",,EC50: > 10000 nM
"CNC(=O)[C@@H](NC(=O)c1nc(-c2cc(C)ccc2F)n2c1CN(C)CC2)C(C)(C)C [Compound 251, (S)-N-(3,3-dimethyl-1-(methylamino)-1-oxobutan-2-yl)-3-(2-fluoro-5-methylphenyl)-7-methyl-5,6,7,8-tetrahydroimidazo[1,5-a]pyrazine-1-carboxamide]",+,
CN1CCCn2c(-c3ccccc3)nc(C(=O)N[C@H](C(N)=O)C(C)(C)C)c2C1 [Compound 582],+,
"O=C(NCC1CCOCC1)c1nc(-c2ccccc2)n2c1CNCC2 [Compound 46, 3-phenyl-N-((tetrahydro-2H-pyran-4-yl)methyl)-5,6,7,8-tetrahydroimidazo[1,5-a]pyrazine-1-carboxamide]",,EC50 [1]: > 10000 nM
"Cc1nnc([C@@H](NC(=O)c2nc(-c3ccccc3)n3c2CN(C)CC3)C(C)(C)C)o1 [Compound 201, (S)-N-(2,2-dimethyl-1-(5-methyl-1,3,4-oxadiazol-2-yl)propyl)-7-methyl-3-phenyl-5,6,7,8-tetrahydroimidazo[1,5-a]pyrazine-1-carboxamide]",+,
"CNC(=O)[C@@H](NC(=O)c1nc(-c2ccccc2)n2c1CN(C(C)C)CCC2)C(C)(C)C [Compound 319, (S)-N-(3,3-dimethyl-1-(methylamino)-1-oxobutan-2-yl)-8-isopropyl-3-phenyl-6,7,8,9-tetrahydro-5H-imidazo[1,5-a][1,4]diazepine-1-carboxamide]",+,

Structure (SMILES),+/− HCB2,further results
"CNC(=O)[C@@H](NC(=O)c1nc(-c2cc3ccccc3o2)n2c1CN(C)CCC2)C(C)(C)C [Compound 351, (S)-3-(benzofuran-2-yl)-N-(3,3-dimethyl-1-(methylamino)-1-oxobutan-2-yl)-8-methyl-6,7,8,9-tetrahydro-5H-imidazo[1,5-a][1,4]diazepine-1-carboxamide]",+,
"CNC(=O)[C@@H](NC(=O)c1nc(-c2cccc(F)c2)n2c1CN(C)CCC2)C(C)(C)C [Compound 345, (S)-N-(3,3-dimethyl-1-(methylamino)-1-oxobutan-2-yl)-3-(3-fluorophenyl)-8-methyl-6,7,8,9-tetrahydro-5H-imidazo[1,5-a][1,4]diazepine-1-carboxamide]",+,
"CNC(=O)[C@@H](NC(=O)c1nc(-c2csc3ccccc23)n2c1CN(C)CC2)C(C)(C)C [Compound 75, (S)-3-(benzo[b]thiophen-3-yl)-N-(3,3-dimethyl-1-(methylamino)-1-oxobutan-2-yl)-7-methyl-5,6,7,8-tetrahydroimidazo[1,5-a]pyrazine-1-carboxamide]",+,
"CCc1nc(C(=O)N[C@H](C(=O)NC)C(C)(C)C)c2n1CCN(C)C2 [Compound 310, (S)-N-(3,3-dimethyl-1-(methylamino)-1-oxobutan-2-yl)-3-ethyl-7-methyl-5,6,7,8-tetrahydroimidazo[1,5-a]pyrazine-1-carboxamide]",−,
"CNC(=O)[C@@H](NC(=O)c1nc(-c2cccc(Cl)c2)n2c1CN(C)CCC2)C(C)(C)C [Compound 433, (S)-3-(3-chlorophenyl)-N-(3,3-dimethyl-1-(methylamino)-1-oxobutan-2-yl)-8-methyl-6,7,8,9-tetrahydro-5H-imidazo[1,5-a][1,4]diazepine-1-carboxamide]",+,
"CC(C)(C)OC(=O)N1CCn2c(-c3ccccc3)nc(C(=O)NCC3CCOCC3)c2C1 [Compound 38, tert-butyl 3-phenyl-1-((tetrahydro-2H-pyran-4-yl)methylcarbamoyl)-5,6-dihydroimidazo[1,5-a]pyrazine-7(8H)-carboxylate]",−,
"CNC(=O)[C@@H](NC(=O)c1nc(-c2cscc2C)n2c1CNCC2)C(C)(C)C [Compound 21, (S)-N-(3,3-dimethyl-1-(methylamino)-1-oxobutan-2-yl)-3-(4-methylthiophen-3-yl)-5,6,7,8-tetrahydroimidazo[1,5-a]pyrazine-1-carboxamide]",+,
"CNC(=O)[C@@H](NC(=O)c1nc(C=C(C)C)n2c1CN(C)CC2)C(C)(C)C [Compound 257, (S)-N-(3,3-dimethyl-1-(methylamino)-1-oxobutan-2-yl)-7-methyl-3-(2-methylprop-1-enyl)-5,6,7,8-tetrahydroimidazo[1,5-a]pyrazine-1-carboxamide]",+,
"CNC(=O)[C@H](C)NC(=O)c1nc(-c2ccccc2)n2c1CN(C)CC2 [Compound 78, (S)-7-methyl-N-(1-(methylamino)-1-oxopropan-2-yl)-3-phenyl-5,6,7,8-tetrahydroimidazo[1,5-a]pyrazine-1-carboxamide]",,EC50 [1]: > 10000 nM
"CC12CCC(C1)C(C)(C)C2NC(=O)c1nc(-c2ccccc2)n2c1CN(CCO)CC2 (stereo not shown) [Compound 143, 7-(2-hydroxyethyl)-3-phenyl-N-(1,3,3-trimethylbicyclo[2.2.1]heptan-2-yl)-5,6,7,8-tetrahydroimidazo[1,5-a]pyrazine-1-carboxamide]",+,
"Cc1noc([C@@H](NC(=O)c2nc(-c3ccccc3)n3c2CN(C(C)C)CC3)C(C)(C)C)n1 [Compound 89, (S)-N-(2,2-dimethyl-1-(3-methyl-1,2,4-oxadiazol-5-yl)propyl)-7-isopropyl-3-phenyl-5,6,7,8-tetrahydroimidazo[1,5-a]pyrazine-1-carboxamide]",,EC50: > 10000 nM
"CNC(=O)[C@@H](NC(=O)c1nc(-c2ccccc2)n2c1CN(c1ncccn1)CCC2)C(C)(C)C [Compound 483, (S)-N-(3,3-dimethyl-1-(methylamino)-1-oxobutan-2-yl)-3-phenyl-8-(pyrimidin-2-yl)-6,7,8,9-tetrahydro-5H-imidazo[1,5-a][1,4]diazepine-1-carboxamide]",,EC50: > 10000 nM
CNC(=O)c1ccccc1NC(=O)c1nc(-c2ccc(Cl)cc2F)n2c1CN(C)CC2 [Compound 217],,EC50 [1]: > 10000 nM
"CN1CCCn2c(-c3ccc(Cl)c(F)c3)nc(C(=O)N[C@H](C(=O)N(C)C)C(C)(C)C)c2C1 [Compound 560, (S)-3-(4-chloro-3-fluorophenyl)-N-(1-(dimethylamino)-3,3-dimethyl-1-oxobutan-2-yl)-8-methyl-6,7,8,9-tetrahydro-5H-imidazo[1,5-a][1,4]diazepine-1-carboxamide]",+,
"CN1CCCn2c(-c3ccc(F)cc3F)nc(C(=O)N[C@H](C(N)=O)C(C)(C)C)c2C1 [Compound 578, (S)-N-(1-amino-3,3-dimethyl-1-oxobutan-2-yl)-3-(2,4-difluorophenyl)-8-methyl-6,7,8,9-tetrahydro-5H-imidazo[1,5-a][1,4]diazepine-1-carboxamide]",+,

# Where a name gives a salt, the structure may show the parent alone. Read-outs that look alike come from different tables or passages of the source.
